{"source": "the supplement of paper PMC11417369", "note": "± gives the standard deviation of the averaged measurements. The list shows a part of the results."}
{"tested_on": "PfAP2-EXP AP2 domain (GST-tagged)", "test": "gcPBM binding intensity (ln(normalized median fluorescence intensity)); higher = stronger DNA binding", "method_in_brief": "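The highest Masliner-normalised natural-log median intensity across replicate spots of either probe orientation is reported as binding intensity. GST-tagged P. falciparum DNA-binding domains expressed in E. coli were applied for 1 h to an Agilent 4 × 180k array of primer-extended double-stranded 36-bp intergenic genomic probes plus negative controls, and bound protein was detected with Alexa488 anti-GST antibody and scanned at 488 nm.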"}
{"sequence": "TTTATATAAATTTTTTGTACACAAGTAAAAACGCGT [XGTACX_site2459]", "gcPBM binding intensity (ln)": "8.68 ± 0.33"}
{"sequence": "ATAAAATATATATATATAAAAATAAATACATAAATA [GTGCAC_negctrl_site157]", "gcPBM binding intensity (ln)": "8.44 ± 0.38"}
{"sequence": "CAAACAAACAGACACACACACACACCCAAAAATGAT [CACACA_site2430]", "gcPBM binding intensity (ln)": "8.65 ± 0.45"}
{"sequence": "TCAATATTAAATTATTGTACATGTATGTATATATAT [XGTACX_site3861]", "gcPBM binding intensity (ln)": "8.775 ± 0.064"}
{"sequence": "TTTTTTTTTTTTTTTTTACACACTTTATTCAAACAA [CACACA_site9360]", "gcPBM binding intensity (ln)": "8.2 ± 0.42"}
{"sequence": "TACACCCACCCACATACACACACATACACATATATA [CACACA_site8503]", "gcPBM binding intensity (ln)": "9.33 ± 0.71"}
{"sequence": "AAAAAAAAAAATATATTAAAATAAAAAATATTAACA [GTGCAC_negctrl_site13]", "gcPBM binding intensity (ln)": "8.16 ± 0.33"}
{"sequence": "CCACTTAAAATAAAAAGTACATACAGGTGTTATACA [XGTACX_site8124]", "gcPBM binding intensity (ln)": "8.54 ± 0.42"}
{"sequence": "AAATTGGTTCATCAATGTACATGTAAAATAAATCAA [XGTACX_site4795]", "gcPBM binding intensity (ln)": "8.88 ± 0.46"}
{"sequence": "AATAATGTTATAAATTGTACGTGTATTATTCATTAC [XGTACX_site894]", "gcPBM binding intensity (ln)": "8.47 ± 0.4"}
{"sequence": "TAATGAGGAAATACAGCACACGTTATTACACTTTTC [CACACA_site5399]", "gcPBM binding intensity (ln)": "8.46 ± 0.4"}
{"sequence": "TATATTTATCCATACAAGAAAAAAAAAAAAAAAATA [CACACA_negctrl_site1328]", "gcPBM binding intensity (ln)": "8.17 ± 0.55"}
{"sequence": "CAAATAAAAACAAAACGTACGAATAAATTATTGTTA [XGTACX_site5136]", "gcPBM binding intensity (ln)": "8.89 ± 0.36"}
{"sequence": "CACATATAAATATTAACACACATAATGAATTATATA [CACACA_site2741]", "gcPBM binding intensity (ln)": "8.17 ± 0.28"}
{"sequence": "ATATATAAAAATTAGGTGCATTAAATTAAAATATAT", "gcPBM binding intensity (ln)": "8.98 ± 0.45"}
{"sequence": "ATATCGTTATTTTTATGTACTAAAATATTTAATTAT [XGTACX_site3516]", "gcPBM binding intensity (ln)": "8.88 ± 0.47"}
{"sequence": "TATTTGATCTAAAGAGCATGCAAAAACGAACAAGAT [TGCATGCA_site136]", "gcPBM binding intensity (ln)": "9.96 ± 0.5"}
{"sequence": "TTTTTTTTTTATTGTACATGCAAAAAATTCCACACA [TGCATGCA_site279]", "gcPBM binding intensity (ln)": "8.79 ± 0.12"}
{"sequence": "TTTAAATAAAATATTACACACTTAGAAAGATATATA [CACACA_site7684]", "gcPBM binding intensity (ln)": "8.17 ± 0.31"}
{"sequence": "AGCATATTATTTTAGGTGCACTTGAAATGTGTTAAC", "gcPBM binding intensity (ln)": "9.06 ± 0.3"}
{"sequence": "TATTTTTATTATATGGTGCATATATACATACATATA", "gcPBM binding intensity (ln)": "8.875 ± 0.007"}
{"sequence": "TTCAAGCCCTTCTGCTTACACACAGTAATTATTGTG [CACACA_site2952]", "gcPBM binding intensity (ln)": "8.94 ± 0.61"}
{"sequence": "AAGTGCATATTATTCACACATAATAATTGTATACCT [CACACA_site5965]", "gcPBM binding intensity (ln)": "8.85 ± 0.14"}
{"sequence": "ATATGATCATAAAACACACACACAAAAAAAAAAAAA [CACACA_site1806]", "gcPBM binding intensity (ln)": "8.29 ± 0.61"}
{"sequence": "AAAAAAAAAAAACACACACACAATAGTATATAAATC [CACACA_site956]", "gcPBM binding intensity (ln)": "8.72 ± 0.49"}
{"sequence": "AATTAGATGGATAAATGTACATAATGTGAATATATT [XGTACX_site86]", "gcPBM binding intensity (ln)": "8.96 ± 0.42"}
{"sequence": "ATCCACTTTTTGAAGACACACACAAAAAAAAAAAAA [CACACA_site8818]", "gcPBM binding intensity (ln)": "8.36 ± 0.59"}
{"sequence": "TAAAAATAATTTGCATGTACATAGGTCGATGTATTT [XGTACX_site1357]", "gcPBM binding intensity (ln)": "8.77 ± 0.2"}
{"sequence": "TGTAAATTATAACGTGCACACATATTTAAAATGAAA [CACACA_site8915]", "gcPBM binding intensity (ln)": "9.39 ± 0.47"}
{"sequence": "AGATATTTATTGAGTGCATGTTATAAAGGGAAAAAA [TGCATGCA_site88]", "gcPBM binding intensity (ln)": "8.79 ± 0.3"}
{"sequence": "ATATAGAAAATGCATACACACTTTATAAATATATTT [CACACA_site6553]", "gcPBM binding intensity (ln)": "8.54 ± 0.46"}
{"sequence": "AGGATATATAAGTATACACACATATTTATATTTATA [CACACA_site6239]", "gcPBM binding intensity (ln)": "8.23 ± 0.42"}
{"sequence": "AATTTAAAATATATAGTACACACGTGAACACAAATA [CACACA_site416]", "gcPBM binding intensity (ln)": "8.77 ± 0.32"}
{"sequence": "TTAAAATATACATAAACACACACAAAACGTTTAAGA [CACACA_site8267]", "gcPBM binding intensity (ln)": "8.89 ± 0.44"}
{"sequence": "TTTTTTTTTTTTTTTTTTTTCACATGTGTGGAAAAA [GTGCAC_negctrl_site352]", "gcPBM binding intensity (ln)": "8.26 ± 0.38"}
{"sequence": "TAACAATAACTTTATACACACATAATATATATATAT [CACACA_site3543]", "gcPBM binding intensity (ln)": "9.65 ± 0.33"}
{"sequence": "TGTATTTATAATAAAACACACATTTTTAATGTGCTC [CACACA_site4908]", "gcPBM binding intensity (ln)": "8.03 ± 0.2"}
{"sequence": "TGTTGTCCTAATTCTACACACAATGGTTTATTAAAA [CACACA_site2648]", "gcPBM binding intensity (ln)": "8.62 ± 0.23"}
{"sequence": "CATATACTTCTGTGCACACGAATATTTTTCTTCTTC [CACACA_site1407]", "gcPBM binding intensity (ln)": "9.15 ± 0.042"}
{"sequence": "TATACTCATATTTTTACACACATATTTTTTCATATA [CACACA_site5412]", "gcPBM binding intensity (ln)": "8.64 ± 0.47"}
{"sequence": "TTTTAACGTAAAACATTGATGATATAAAAAATAGGA [GTGCAC_negctrl_site540]", "gcPBM binding intensity (ln)": "8.66 ± 0.37"}
{"sequence": "TTTGTGTTTATAAATTGTACAAAGGTGCAAGAAGAA [XGTACX_site2159]", "gcPBM binding intensity (ln)": "9.26 ± 0.3"}
{"sequence": "AAAAAAAAAAAAAACACACACACACCCATAAATATA [CACACA_site151]", "gcPBM binding intensity (ln)": "8.65 ± 0.53"}
{"sequence": "AGGATTAAAAAAACATGTACGTATTTAAATATATTT [XGTACX_site8774]", "gcPBM binding intensity (ln)": "8.72 ± 0.32"}
{"sequence": "AATTGAATAAATTAAACATGCACAGATGTTCTATTT [TGCATGCA_site692]", "gcPBM binding intensity (ln)": "8.15 ± 0.3"}
{"sequence": "TACTGGTATCGATATAGTACATATAATATTATGTTA [XGTACX_site7490]", "gcPBM binding intensity (ln)": "8.59 ± 0.31"}
{"sequence": "GTATAAAAAAATAAAAGTACAAAAAAAAAAGACTGA [XGTACX_site186]", "gcPBM binding intensity (ln)": "8.79 ± 0.25"}
{"sequence": "AAATAAAAAATATGAACACACATATATAACAAAATA [CACACA_site261]", "gcPBM binding intensity (ln)": "8.69 ± 0.41"}
{"sequence": "TTTTTTTTTTTTTTTTTTTTTTTTTTTTTTTTTTTT [CACACA_negctrl_site104]", "gcPBM binding intensity (ln)": 9.31}
{"sequence": "ATATAAATAAAATATACACACATAAATATAACGACA [CACACA_site1637]", "gcPBM binding intensity (ln)": "8.88 ± 0.47"}
{"sequence": "AACATTTCCTTTCTGTGTACATATAAACCCATCTAT [XGTACX_site2071]", "gcPBM binding intensity (ln)": "9.09 ± 0.45"}
{"sequence": "ACGAAGATTTATCTTGCACACGCAAAAAAAAAAAAA [CACACA_site7933]", "gcPBM binding intensity (ln)": "8.49 ± 0.44"}
{"sequence": "AAAAAAAAAAAAAAAGCATGCACATATTATTTTTTT [TGCATGCA_site416]", "gcPBM binding intensity (ln)": "9.03 ± 0.16"}
{"sequence": "ATTATATTTTGTAAATGTACATTTATATATTTTGTA [XGTACX_site1226]", "gcPBM binding intensity (ln)": "8.62 ± 0.36"}
{"sequence": "ATTCATAAACGTGTGTTAATATGAATTTAAACATAA [XGTACX_negctrl_site213]", "gcPBM binding intensity (ln)": "8.32 ± 0.4"}
{"sequence": "ATTATAAGAAGGGGGGGTACATAAATATAAATGTAT [XGTACX_site5624]", "gcPBM binding intensity (ln)": "10.4 ± 0.2"}
{"sequence": "TTATTTAAAAAATTTTTAAATATACAAAAAAAAAAA [TGCATGCA_negctrl_site464]", "gcPBM binding intensity (ln)": "8.38 ± 0.3"}
